Results from the supplement of paper PMC7125110.
± gives the standard error. Variants at the floor of the assay are shown more often than the library holds them.

B1: glmS ribozyme (parent)
chain: AUAAAAGCGCCAGAACUACAGAAAUGUAGUUGACGAGGAGGAGGUUUAUCGAAUUUUCGGCGGAUGCCUCCAAA

Tests used:
Conditions in all cases: with glucosamine-6-phosphate
glucosamine-6-phosphate [1] = variants of: B1; assay: self-cleavage kobs at 640 uM GlcN6P; higher = faster cleavage; RNA array
Outline: (§1)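 The measurements used barcoded ribozyme variants on sequenced MiSeq chips, transcribed in situ by E. coli RNA polymerase and tracked at 37 °C with a hybridised Cy3 probe. Glucosamine-6-phosphate, 40 μM to 10 mM in HEPES/KCl/Mg(OAc)2 buffer, was flowed in while tiles were imaged over ~14 h. Baseline-normalised signals, also normalised to non-cleaving reference variants, gave per-tile medians that were fit to one- or two-exponential decays for kobs. kcat and KM resulted from weighted Michaelis–Menten fits across concentrations.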

glucosamine-6-phosphate [2] = variants of: B1; assay: self-cleavage kobs at 160 uM GlcN6P; higher = faster cleavage; RNA array
Outline: as §1

glucosamine-6-phosphate [3] = variants of: B1; assay: self-cleavage kobs at 2500 uM GlcN6P; higher = faster cleavage; RNA array
Outline: as §1

glucosamine-6-phosphate [4] = variants of: B1; assay: self-cleavage kobs at 10000 uM GlcN6P; higher = faster cleavage; RNA array
Outline: as §1

| Variant | self-cleavage kobs at 640 uM GlcN6P (glucosamine-6-phosphate [1]) [s⁻¹] | self-cleavage kobs at 160 uM GlcN6P (glucosamine-6-phosphate [2]) [s⁻¹] | self-cleavage kobs at 2500 uM GlcN6P (glucosamine-6-phosphate [3]) [s⁻¹] | self-cleavage kobs at 10000 uM GlcN6P (glucosamine-6-phosphate [4]) [s⁻¹] |
| --- | --- | --- | --- | --- |
| G60U A64C | < 1e-05 | < 1e-05 | < 1e-05 |  |
| G60U U69A | < 1e-05 |  | < 1e-05 | < 1e-05 |
| C61G A64G C71G | 0.000141 ± 3.7e-05 |  |  |  |
| C61G U69C C70G | 6.36e-05 ± 2.5e-05 | 5.95e-05 ± 2.1e-05 | 8.71e-05 ± 4.1e-05 |  |
| C61U U69A | 4.2e-05 ± 1.3e-05 | 3.86e-05 ± 1.8e-05 | 6.76e-05 ± 1.9e-05 |  |
| G62C A64U G66U | < 1e-05 |  | < 1e-05 |  |
| G62C C70G C71A | 6.26e-05 ± 2.7e-05 |  | 5.21e-05 ± 2.2e-05 |  |
| G62U G63C | < 1e-05 |  |  |  |
| G63A G66C | < 1e-05 | < 1e-05 | < 1e-05 | < 1e-05 |
| G63A G66U C67U | < 1e-05 |  | < 1e-05 |  |
| A64G C68G C70A | < 1e-05 | < 1e-05 |  |  |
| U65A C70G | 7.89e-05 ± 1e-05 | 5.95e-05 ± 1.2e-05 | 7.95e-05 ± 1e-05 | 7.32e-05 ± 7.6e-06 |
| U65A G66C | 0.000156 ± 3.2e-05 |  | 0.000267 ± 8.2e-05 | 0.000436 ± 8.9e-05 |
| C67G C68U | 5.35e-05 ± 6.6e-06 | 2.51e-05 ± 1e-05 | 6.33e-05 ± 6e-06 | 6.92e-05 ± 6.7e-06 |
| C67U C70U | 0.000132 ± 9.5e-06 | 4.68e-05 ± 6.2e-06 | 0.000264 ± 2e-05 | 0.000377 ± 3e-05 |
| U69G C70A | 5.13e-05 ± 9.1e-06 | 4.55e-05 ± 1.3e-05 | 7.85e-05 ± 1.2e-05 |  |
| C70U C71A | 0.00013 ± 1.4e-05 | 5.23e-05 ± 9.7e-06 |  |  |
| A6C A36G G40A G60U |  | < 1e-05 | < 1e-05 |  |
| A6C A53U G62U C71G |  | < 1e-05 |  |  |
| A6C C10G C11U |  | < 1e-05 | < 1e-05 |  |
| A6C C11U U57A C71U |  | < 1e-05 | < 1e-05 |  |
| A6G A14C A42G U49G |  | < 1e-05 |  |  |
| A6G A14G C16U G32U G35C G41C C50A C71G |  | < 1e-05 | < 1e-05 |  |
| A6G A15C U45A G59A |  | < 1e-05 |  |  |

| Variant | self-cleavage kobs at 640 uM GlcN6P (glucosamine-6-phosphate [1]) [s⁻¹] | self-cleavage kobs at 160 uM GlcN6P (glucosamine-6-phosphate [2]) [s⁻¹] | self-cleavage kobs at 2500 uM GlcN6P (glucosamine-6-phosphate [3]) [s⁻¹] | self-cleavage kobs at 10000 uM GlcN6P (glucosamine-6-phosphate [4]) [s⁻¹] |
| --- | --- | --- | --- | --- |
| A6G A33G G40A U47G U54C C70U C71U |  | < 1e-05 |  |  |
| A6G C11U A39C |  | < 1e-05 |  |  |
| A6G C16A |  | < 1e-05 |  |  |
| A6G C16A C70G |  | < 1e-05 |  |  |
| A6G G13A A39U A42C |  | < 1e-05 |  |  |
| A6G G29A U69A |  | < 1e-05 | < 1e-05 | < 1e-05 |
| A6G G32C A48U A64G |  | < 1e-05 | < 1e-05 |  |
| A6G U69C |  | < 1e-05 |  | 2.56e-05 ± 1e-05 |
| A6U A48C U57G |  | < 1e-05 |  |  |
| A6U C8U A14U A36G |  | < 1e-05 |  |  |
| A6U C10A G35U G38U A52C |  | < 1e-05 | < 1e-05 |  |
| A6U C10G A42C |  | < 1e-05 | < 1e-05 |  |
| A6U C11A G13U |  | < 1e-05 |  |  |
| A6U C11U |  | < 1e-05 |  |  |
| A6U G32U G44U |  | < 1e-05 | < 1e-05 | < 1e-05 |
| A6U G44U U46G |  | < 1e-05 |  | < 1e-05 |
| A6U U46C |  | < 1e-05 |  |  |
| A6U U47C C68U |  | < 1e-05 |  |  |
| A6U U49A G62A |  | < 1e-05 | < 1e-05 |  |
| G7A A12C A39G |  | < 1e-05 |  |  |
| G7A A15G U30C U45A |  | < 1e-05 |  |  |
| G7A A33C A42C A48C |  | < 1e-05 | < 1e-05 |  |
| G7A A36U U47A A64G C67G |  | < 1e-05 |  | < 1e-05 |
| G7A A39U G51A |  | < 1e-05 |  |  |

| Variant | self-cleavage kobs at 640 uM GlcN6P (glucosamine-6-phosphate [1]) [s⁻¹] | self-cleavage kobs at 160 uM GlcN6P (glucosamine-6-phosphate [2]) [s⁻¹] | self-cleavage kobs at 2500 uM GlcN6P (glucosamine-6-phosphate [3]) [s⁻¹] | self-cleavage kobs at 10000 uM GlcN6P (glucosamine-6-phosphate [4]) [s⁻¹] |
| --- | --- | --- | --- | --- |
| G7A C8A U49G |  | < 1e-05 | < 1e-05 | < 1e-05 |
| G7A G13C U30C A39C |  | < 1e-05 | < 1e-05 |  |
| G7A G38U G44C U49A A53U U56C |  | < 1e-05 |  |  |
| G7A U30A U45A C70A |  | < 1e-05 | < 1e-05 |  |
| G7A U54A |  | < 1e-05 |  |  |
| G7C A15U C34A A36G |  | < 1e-05 |  |  |
| G7C A48U G60A U65A |  | < 1e-05 | < 1e-05 |  |
| G7C C8U A15G G35A |  | < 1e-05 | < 1e-05 |  |
| G7C G41A G62U |  | < 1e-05 | < 1e-05 |  |
| G7U A12G G32U |  | < 1e-05 |  |  |
| G7U A14G U56G C67G |  | < 1e-05 | < 1e-05 |  |
| G7U A33G C71U |  | < 1e-05 | < 1e-05 |  |
| G7U A52G C70G |  | < 1e-05 |  |  |
| G7U G66A |  | < 1e-05 |  | < 1e-05 |
| C8A C16U U31C G38A U56C |  | < 1e-05 |  | < 1e-05 |
| C8A C67A |  | < 1e-05 | < 1e-05 |  |
| C8A C70G |  | < 1e-05 |  |  |
| C8A G13U A33G A36C |  | < 1e-05 |  |  |
| C8A G29C G32C |  | < 1e-05 |  |  |
| C8A G60A |  | < 1e-05 |  |  |
| C8A U46C |  | < 1e-05 |  |  |
| C8A U69A |  | < 1e-05 |  |  |
| C8G A33U G40U C68U |  | < 1e-05 | < 1e-05 |  |
| C8G A39U U69A |  | < 1e-05 |  |  |

| Variant | self-cleavage kobs at 640 uM GlcN6P (glucosamine-6-phosphate [1]) [s⁻¹] | self-cleavage kobs at 160 uM GlcN6P (glucosamine-6-phosphate [2]) [s⁻¹] | self-cleavage kobs at 2500 uM GlcN6P (glucosamine-6-phosphate [3]) [s⁻¹] | self-cleavage kobs at 10000 uM GlcN6P (glucosamine-6-phosphate [4]) [s⁻¹] |
| --- | --- | --- | --- | --- |
| C8G G9A C50U |  | < 1e-05 | < 1e-05 | < 1e-05 |
| C8G G35U G44A |  | < 1e-05 | < 1e-05 |  |
| C8G G38A A52G |  | < 1e-05 | < 1e-05 |  |
| C8G G59A C70G |  | < 1e-05 |  |  |
| C8G G60A C61A |  | < 1e-05 | < 1e-05 | < 1e-05 |
| C8U A14C G44U A48G A52C |  | < 1e-05 |  |  |
| C8U A33G C34G A36U U65C |  | < 1e-05 | < 1e-05 |  |
| C8U C70A |  | < 1e-05 |  |  |
| C8U G9C G62A U65G |  | < 1e-05 | < 1e-05 |  |
| C8U G29C G51A |  | < 1e-05 |  |  |
| C8U G32C G38U A53C C61U C70U |  | < 1e-05 | < 1e-05 |  |
| C8U G35A U49C A64C C71A |  | < 1e-05 |  |  |
| C8U G35C C50U G51U C61G |  | < 1e-05 | < 1e-05 |  |
| C8U G40A G51C |  | < 1e-05 | < 1e-05 |  |
| C8U G41A C67A |  | < 1e-05 | < 1e-05 |  |
| C8U G41U C58U C68A C70G |  | < 1e-05 |  |  |
| C8U U46A |  | < 1e-05 | < 1e-05 | < 1e-05 |
| G9A A12C U31A U55G |  | < 1e-05 |  |  |
| G9A A14U A36C U46G |  | < 1e-05 | < 1e-05 |  |
| G9A A33G G41U |  | < 1e-05 | < 1e-05 |  |
| G9A A33G G44U |  | < 1e-05 | < 1e-05 |  |
| G9A A33U |  | < 1e-05 |  |  |
| G9A A36G C67A |  | < 1e-05 |  |  |
| G9A A53G |  | < 1e-05 |  | 3.28e-05 ± 1.3e-05 |

| Variant | self-cleavage kobs at 640 uM GlcN6P (glucosamine-6-phosphate [1]) [s⁻¹] | self-cleavage kobs at 160 uM GlcN6P (glucosamine-6-phosphate [2]) [s⁻¹] | self-cleavage kobs at 2500 uM GlcN6P (glucosamine-6-phosphate [3]) [s⁻¹] | self-cleavage kobs at 10000 uM GlcN6P (glucosamine-6-phosphate [4]) [s⁻¹] |
| --- | --- | --- | --- | --- |
| G9A C16A G35C A39U C71A |  | < 1e-05 | < 1e-05 |  |
| G9A C50U G51U A52U |  | < 1e-05 |  |  |
| G9A G38A A64G |  | < 1e-05 | < 1e-05 |  |
| G9A G38A U55A C68U |  | < 1e-05 | < 1e-05 |  |
| G9A U69G |  | < 1e-05 |  |  |
| G9C A12G |  | < 1e-05 | < 1e-05 | < 1e-05 |
| G9C A14G G59U |  | < 1e-05 |  |  |
| G9C C11G C61G G63U |  | < 1e-05 | < 1e-05 |  |
| G9C G37A G51A |  | < 1e-05 | < 1e-05 |  |
| G9C U30A G35U G51C |  | < 1e-05 | < 1e-05 |  |
| G9U A12C G40A G41U G43U G63U |  | < 1e-05 |  |  |
| G9U A14U A48G |  | < 1e-05 | < 1e-05 |  |
| G9U A39C |  | < 1e-05 | < 1e-05 | < 1e-05 |
| G9U C10U U54G |  | < 1e-05 |  |  |
| G9U G51A A53G C61U |  | < 1e-05 |  |  |
| G9U U30A |  | < 1e-05 | < 1e-05 |  |
| G9U U45A C67U |  | < 1e-05 | < 1e-05 |  |
| G9U U57A C58A |  | < 1e-05 |  |  |
| C10A G35A A39G |  | < 1e-05 | < 1e-05 |  |
| C10G C16G A42G |  | < 1e-05 |  |  |
| C10G C34A C58A |  | < 1e-05 |  |  |
